Laboratory results reported in paper PMC12040169 (PLOS Biology, 2025).
The list shows a part of the results.

tested on: T1, C. trachomatis L2/434/Bu expressing GFP (CTL2-GFP); set-up: species or system HeLa; C. trachomatis total inclusion area by high-content imaging, normalised to DMSO; settings: total inclusion area; 28.5 h, 10 µM; inhibitor
T1 construct: L2/434/Bu GFP intracellular growth in HeLa cells
Outline: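 Following bulk GFP and resorufin fluorescence reads, infected cells were fixed, Hoechst-stained and imaged on a high-content platform. Inclusion total area and number per well served as growth proxies; nuclei counts indicated host viability. MICs were derived as for the fluorescence assay.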

Compound | % of control remaining
CN1CCN(C(=O)CN(C)S(=O)(=O)c2ccc3ccccc3c2)CC1 [CBK267053] | 81.6607
O=C1CCC(=O)N1CCOc1nccnc1N1CCN(CC2CC2)CC1 [CBK084305] | 84.274
FC(F)(F)c1ccc(Oc2ccc(-c3noc(-c4ccccn4)n3)cc2)nc1 [CBK270152] | 77.5331
CN(C)CC1CCCN(C(=O)c2cc3cc(F)ccc3n2C)C1 (stereo not drawn) [CBK282122] | 91.6213
COC(=O)Cn1c(CN2CCN(c3cccc(Cl)c3)CC2)nc2c1c(=O)n(C)c(=O)n2C [CBK269598] | 84.5549
CCc1nc2ccccc2n1CC(=O)O [CBK111477] | 94.103
COc1ccc(C(=O)NCCc2nc3ccccc3[nH]2)cc1 [CBK261040] | 87.7997
Cc1cc2nnc(SC(C)c3nc(-c4ccccc4)no3)n2c(C)n1 (stereo not drawn) [CBK298306] | 86.401
O=C(O)C1CC(=O)N(CCc2c[nH]c3ccc(Cl)cc23)C1 (stereo not drawn) [CBK287211] | 106.938
O=C(O)C1CCCCC1C(=O)NCCc1ccccc1 (stereo not drawn) [CBK261707] | 104.018
Cc1ccccc1C(c1cnccn1)N(C)C(=O)C1CCN(S(=O)(=O)C(C)C)CC1 (stereo not drawn) [CBK060242] | 103.13
O=C(c1cnn(-c2cccc(Cl)c2)c1)N1CCOCC1CC(F)F (stereo not drawn) [CBK304207] | 6.013
COc1cc(OC)c(NS(=O)(=O)c2cc(C(=O)O)ccc2C)cc1Cl [CBK296105] | 80.7469
CCc1nc2ccccc2n1C1CCN(C(=O)Cc2cccnc2)CC1 [CBK306389] | 10.6016
COc1ccc(Cl)cc1NC(=S)NNC(=O)c1cccnc1 [CBK267161] | 99.3246
N#Cc1c(NC(=O)c2cccnc2)sc2c1CCCCC2 [CBK287584] | 93.5798
C/C(=N\NC(=O)CN(c1ccc(C)cc1)S(=O)(=O)c1ccccc1)c1ccc(Cl)cc1 [CBK262229] | 106.178
O=c1[nH]c2ncc(-c3cccc(Br)c3)nc2n1CCc1cccnc1 [CBK064457] | 71.0355
COc1cccc(CN2CCCC(NC(=O)c3cnn(C(C)C)c3)C2)c1 (stereo not drawn) [CBK307477] | 41.7693
O=C(OCc1ccccc1F)c1cccc(-c2nnc(-c3ccccc3)o2)c1 [CBK267798] | 91.7687
CN(CC1(C)COC1)C(=O)C1CC(=O)N(C(C)(C)C)C1 (stereo not drawn) [CBK281724] | 117.342
Cn1cc(C(=O)N2CCc3ncc(Cl)cc3C2)ccc1=O [CBK285130] | 90.0791
O=C(CC1CCCCC1)Nc1ccc(Cl)nc1 [CBK091349] | 65.9535
CCOC(=O)c1cccc(S(=O)(=O)NC(C)Cn2cncn2)c1 (stereo not drawn) [CBK305820] | 71.0805
O=C(NCc1cccs1)c1ccc2[nH]ccc2c1 [CBK149060] | 90.8098
COc1ccc(C2(C(=O)NCc3cccs3)CC2)cc1 [CBK149831] | 95.5695

Compound | % of control remaining
COCC(=O)N1CCc2sccc2C1c1ccc(NCc2ccc(C)o2)cc1 (stereo not drawn) [CBK286447] | 108.886
CC(C)CSc1nsc(N)n1 [CBK019938] | 91.4775
COc1ccc(OCCNC(=O)c2ccccc2-n2cccc2)cc1 [CBK149592] | 92.1718
O=C(CSc1ccc(Cl)cc1)Nc1cc(C(=O)O)cc(C(=O)O)c1 [CBK266531] | 97.2875
Cc1cc(=O)oc2cc(OCc3ccc(S(=O)(=O)N4CCOCC4)cc3)ccc12 [CBK267402] | 112.904
CC(=O)N1CCC(C(=O)Nc2cnc(-c3ccc(F)c(Cl)c3)c(-c3cccnc3)n2)CC1 [CBK036719] | 56.1197
Cc1ccc(S(=O)(=O)Nc2ccc(-c3cn4cccnc4n3)cc2)cc1[N+](=O)[O-] [CBK268936] | 83.4947
O=C(NCc1cccnc1)c1cc(Br)cnc1NCCOc1ccccc1 [CBK076265] | 95.7992
O=C(NCCCN1CCCC1=O)c1cnc(-c2ccc(Cl)cc2)c(-c2ccncc2)c1 [CBK037545] | 106.772
O=C(Cn1cccc(C(=O)NC2CCCCC2)c1=O)NC1(c2ccccc2)CCCC1 [CBK286059] | 112.184
CCC1CCCCN1C(=O)c1cccc(C(=O)OC)c1 (stereo not drawn) [CBK083195] | 56.9464
Cc1cccn2c(=O)c(/C=C3\SC(=S)N(C(C)c4ccccc4)C3=O)c(NCCCn3ccnc3)nc12 (stereo not drawn) [CBK263836] | 104.578
O=c1[nH]c2ncc(-c3cccc4cccnc34)nc2n1C1CCCCC1 [CBK064215] | 86.0343
Cc1cccc(C)c1NC(=O)CSc1nnc(-c2cccnc2)n1Cc1ccccc1 [CBK265620] | 100.468
CCN(C(=O)c1ccc(C)nc1)[C@H]1CCO[C@@H](c2cccc(-c3cc(F)cc(F)c3)c2)C1 [CBK285856] | 104.664
N#Cc1cc2c(nc1SCC(O)COCc1ccccc1)CCCC2 (stereo not drawn) [CBK265967] | 71.5906
N#C/C(=C/c1ccc(OCc2cccc(C(=O)O)c2)cc1)c1ccc([N+](=O)[O-])cc1 [CBK266626] | 93.6094
CCCOC1CCCN(S(=O)(=O)c2cnc3ccsc3c2)C1 (stereo not drawn) [CBK306367] | 41.6524
CCn1c2cc(C)sc2c2cnn(Cc3cccnc3)c(=O)c21 [CBK284169] | 94.4294
Cc1noc(C)c1NC(=O)N(Cc1ccc2ccccc2c1)CC1CCNCC1 [CBK049774] | 63.3599
CN(C)[C@H]1CC[C@@H](Cc2ccccc2)C[C@@H]1NC(=O)c1ccc(Cl)c(Cl)c1 [CBK012488] | 1.578
COCC(=O)NC[C@H]1C[C@@H]2CCN1C[C@@H]2c1cc(-c2ccccc2)nc(C)n1 [CBK289123] | 83.3628
Fc1ccc(Sc2nc3ccccc3nc2N2CCCC2)cc1 [CBK089543] | 96.4158
Cc1cc(C)nc(Nc2n[nH]c(-c3ccc(N)cc3)n2)n1 [CBK267131] | 112.191
CN(C)CCOC(=O)c1ccc2[nH]c3c(c2c1)CSCC3 [CBK009731C] | 101.99
CCNS(=O)(=O)c1ccc(CCC(=O)Nc2ccc3c(c2)OCO3)cc1 [CBK268367] | 125.165

Compound | % of control remaining
Cc1cc(CNC(=O)c2ccc3c(c2)OCO3)c2ccccc2n1 [CBK270014] | 51.1985
COc1ccc(C2(C(=O)NCc3ccc(-c4ccc(C(N)=O)c(C)n4)cc3)CCCC2)cc1 [CBK285647] | 50.7524
O=C(c1cc(-c2ccncc2)nc2ccc(Cl)cc12)N1CCN(c2ccc([N+](=O)[O-])cc2)CC1 [CBK267748] | 106.052
CCc1cnccc1C(=O)N1CCC(NC(=O)c2cnn(C)c2)CC1 [CBK305388] | 90.5645
CC(C)CN(CCc1ccc(O)cc1)CC(=O)NC1(c2ccccc2)CCC1 [CBK067781T] | 74.3886
CNC(=O)C1(Cc2ccc(-c3ccccc3)cc2)CCN(C(=O)Cc2ccc(C)cc2)CC1 [CBK285769] | 112.558
CC(=O)N[C@H]1CC[C@]2(C)CCC([C@H](C)C(=O)NCCN3CCCC3)[C@H](O)[C@H]2[C@@H]1C (stereo partly drawn) [CBK289440] | 115.325
O=C(COc1ccccc1)NC(/C=C/c1ccccc1)c1cc(Cl)c2cccnc2c1O (stereo not drawn) [CBK263994] | 57.8956
Cc1nnc(SCC(=O)NCCc2ccccc2)nc1O [CBK268045] | 108.958
COc1cccc(-c2nnc(SCC(=O)Nc3cccc([N+](=O)[O-])c3)n2C)c1 [CBK266074] | 74.2908
Cc1oc(-c2ccccc2)nc1C(=O)N1CCCN(C)CC1 [CBK073940C] | 74.1502
Cc1cc(NC(=O)CN(C)C(=O)Cc2cccc(C(F)(F)F)c2)no1 [CBK305564] | 109.377
C=CCNC(=O)C1(Cc2ccccc2-c2ccncc2)CCOCC1 [CBK284784] | 121.002
c1ccc2c(c1)OCC(c1nn3c(Cn4cnc5ccccc54)nnc3s1)O2 (stereo not drawn) [CBK268436] | 91.0544
Cc1ccc(C(=O)COc2ccc(/C=C(\C#N)c3nc(-c4ccc5c(c4)OCO5)cs3)cc2)cc1 [CBK266778] | 80.0402
Cc1ccc(S(=O)(=O)N/N=C(/c2ccccc2)c2ccc(OCC(C)C)cc2)cc1 [CBK261056] | 86.2396
CC(=O)N1c2ccc(-c3cn4cc(C)ccc4n3)cc2CC1C (stereo not drawn) [CBK285195] | 91.3826
CC(=O)N1CCc2sccc2C1c1ccccc1NC(=O)c1ccco1 (stereo not drawn) [CBK286436] | 103.022
CC1CCCCN1Cc1nc2c(c(=O)n(C)c(=O)n2C)n1CCc1ccccc1 (stereo not drawn) [CBK269189] | 114.505
Cc1cccc(C(=O)NC(CC(C)C)c2nnc3n2CCNCC3)n1 (stereo not drawn) [CBK306866] | 90.4648
Cc1nnc(SCC(=O)N/N=C/c2coc3ccccc3c2=O)n1-c1ccccc1 [CBK262842] | 92.5113
COCC(=O)N[C@H]1CCN2C(=O)c3cc(-c4cccc(C)c4C)ccc3NC(=O)[C@@H]2C1 [CBK289562] | 106.187
Cc1cnn(C)c1CN1CCC(C(N)=O)(N2CCCCC2)CC1 [CBK304400] | 49.9439
COc1ccc(Cl)cc1NC(=O)CN(C1CCCCC1)S(C)(=O)=O [CBK266720] | 117.767
Cn1cc(C(=O)N2CCc3ccccc32)c2ccccc21 [CBK200407] | 100.937
CN1CCN(c2c(C(=O)O)cc([N+](=O)[O-])cc2[N+](=O)[O-])CC1 [CBK261519] | 105.095
